In patent publication US8835395B2, “Protein peptide hydrogels” (Kansas State University Research Foundation, priority 2010, dated 2014):
Part of at least one peptide drawing is inferred or uncertain, most often the ends. Where a SMILES comes first, the peptide text is derived from it. Where no end group is shown, it is not given here.

Legend:
[1] = Hydrogel formation of peptide solutions on adding Ca2+ or other ions, or on adjusting pH; type: physicochemical; details: for Behaviour IN CA^2+ SOLUTION OR ACIDIC SOLUTION: presence of Ca2+ or acidic pH; for Hydrogel formation: aqueous solution
[2] = ESI mass spectra of peptides in Ca2+ solution (calcium adducts); type: binding; details: mass spectra dominated by Ca2+ adducts
[3] = Rheology: storage modulus G' (frequency sweep); type: physicochemical; details: 5 mM peptide

Molecule | Behaviour IN CA^2+ SOLUTION OR ACIDIC SOLUTION [1] | Hydrogel formation [1] | other results
CC[C@H](C)[C@H](NC(=O)[C@H](CC(C)C)NC(=O)[C@@H](N)Cc1ccccc1)C(=O)N[C@H](C(=O)N[C@H](C(=O)N1CCC[C@H]1C(=O)N1CCC[C@@H]1C(=O)NCC(=O)N1CCC[C@H]1C(=O)NCC(=O)NCC(=O)N[C@@H](CC(=O)O)C(=O)NCC(=O)N1CCC[C@H]1C(=O)NCC(=O)NCC(=O)N[C@@H](CC(=O)O)C(=O)O)[C@@H](C)CC)C(C)C [h5PP^De, FLIVI-PP^D-GPGGDGPGGD] (HELM PEPTIDE1{F.L.I.V.I.P.[dP].G.P.G.G.D.G.P.G.G.D}$$$$V2.0) | liquid |  | 
FLIVIGPGGDGPGGD [h5e, FLIVI-GPGGDGPGGD] | large insoluble particles |  | Affinity to calcium [2]: high affinity
FLIVIGSIIGPGGDGPGGD [h9e, FLIVI-GSII-GPGGDGPGGD] | strong hydrogel |  | Affinity to calcium [2]: high affinity; Kind of hydrogel formed ([1]; Ca2+ solution): soft-gel; Kind of hydrogel formed ([1]; Mg2+ solution): softer hydrogel; Kind of hydrogel formed ([1]; Zn2+ solution): hard hydrogel; Kind of hydrogel formed ([1]; acidic conditions): hard hydrogel
FLIVIGSIIKKKKKKKKKK [h5GSIIK, FLIVI-GSII-KKKKKKKKKK] | weak hydrogel | weak hydrogels | Storage modulus ([3]; basic pH): 55.0±0.9 Pa
FLIVIIIVIGPGGDGPGGD [h5IIVIe, FLIVI-IIVI-GPGGDGPGGD] | insoluble particles |  | 
FLIVISIIGPGGDGPGGD [h5SIIe, FLIVI-SII-GPGGDGPGGD] | gel-like particles |  | 
LLLLLGSIIGPGGDGPGGD [L5GSIIe, LLLLL-GSII-GPGGDGPGGD] | weak hydrogel | weak hydrogels | Storage modulus ([3]; Ca2+ solution): 21.6±0.3 Pa
LLLLLGSIIKKKKKKKKKK [L5GSIIK10, LLLLL-GSII-KKKKKKKKKK] | no hydrogel | did not form a hydrogel | 
